# Out of some 310,000 compounds screened, about 2,200 (0.71%) showed an effect of 50% or more. Effects have a minus sign here. Some of the results follow.
# Biological target: human ether-à-go-go-related gene (hERG) potassium channel (human, UniProt Q12809)
# Assay: primary screen, population patch clamp on CHO cells stably expressing hERG
# Sequence of human ether-à-go-go-related gene (hERG) potassium channel (Q12809 whole entry, looked up): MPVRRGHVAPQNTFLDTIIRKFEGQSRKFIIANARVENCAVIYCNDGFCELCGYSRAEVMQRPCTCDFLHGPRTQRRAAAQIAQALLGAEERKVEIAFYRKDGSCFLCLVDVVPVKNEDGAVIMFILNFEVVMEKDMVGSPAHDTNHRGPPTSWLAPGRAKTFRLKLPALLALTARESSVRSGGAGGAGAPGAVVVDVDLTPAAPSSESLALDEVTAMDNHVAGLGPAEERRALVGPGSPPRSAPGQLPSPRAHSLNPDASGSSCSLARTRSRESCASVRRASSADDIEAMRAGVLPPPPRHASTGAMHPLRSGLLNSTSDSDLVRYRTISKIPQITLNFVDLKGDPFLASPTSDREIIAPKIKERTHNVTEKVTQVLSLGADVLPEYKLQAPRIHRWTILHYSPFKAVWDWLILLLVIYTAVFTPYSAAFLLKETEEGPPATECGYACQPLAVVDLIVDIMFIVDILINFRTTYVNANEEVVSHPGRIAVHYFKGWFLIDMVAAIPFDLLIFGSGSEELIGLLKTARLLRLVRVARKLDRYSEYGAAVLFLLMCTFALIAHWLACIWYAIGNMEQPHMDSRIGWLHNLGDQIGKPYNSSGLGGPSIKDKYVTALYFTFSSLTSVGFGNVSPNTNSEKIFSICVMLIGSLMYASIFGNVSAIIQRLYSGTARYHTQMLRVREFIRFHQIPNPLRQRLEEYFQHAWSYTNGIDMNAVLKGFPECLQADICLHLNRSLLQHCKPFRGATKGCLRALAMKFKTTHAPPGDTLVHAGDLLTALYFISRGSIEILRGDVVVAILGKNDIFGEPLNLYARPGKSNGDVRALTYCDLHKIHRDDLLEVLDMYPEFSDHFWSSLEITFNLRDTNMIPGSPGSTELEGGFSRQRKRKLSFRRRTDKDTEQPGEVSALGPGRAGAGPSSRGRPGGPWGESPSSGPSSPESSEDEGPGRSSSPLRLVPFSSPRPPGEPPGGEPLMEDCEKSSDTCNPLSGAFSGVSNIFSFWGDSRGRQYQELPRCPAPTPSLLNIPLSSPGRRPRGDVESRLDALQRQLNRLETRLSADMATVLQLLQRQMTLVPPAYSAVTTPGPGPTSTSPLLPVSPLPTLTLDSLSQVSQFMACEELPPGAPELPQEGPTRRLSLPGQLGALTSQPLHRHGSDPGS
row,SMILES,"hERG current change (%, negative = inhibition) at 1uM [%]"
1,COc1cc2cc(C(c3nnnn3C3CCCC3)N3CCc4ccccc43)c(=O)[nH]c2cc1OC (stereo not shown),12.7
2,Cc1cccc([C@@H](NC(=O)OC(C)(C)C)C(=O)OC(C)(C)C)c1,16.8
3,COc1ccc(C(=O)ON=C2CCN(C)CC2)cc1.Cl,23.2
4,CCN(CC)S(=O)(=O)c1ccc(Cl)c(C(=O)Nc2nnc(C)s2)c1,7.53
5,CCN(CC(=O)Nc1ccc(NC(C)=O)cc1)C(=O)c1sc2nc3n(c(=O)c2c1C)CCC3,10.2
6,COc1ccc2ccccc2c1C1CC(=O)N2CN(C)CSC2=C1C#N (stereo not shown),11.4
7,CCOc1ccc(NC(=S)N(CCN2CCOCC2)Cc2cc3cc4c(cc3[nH]c2=O)OCCO4)cc1,2.44
8,O=C1CC(c2ccc(Cl)cc2)n2nc(N3C(=O)c4ccccc4C3=O)nc2N1 (stereo not shown),-3.99
9,COc1ccc(Cl)cc1NC(=O)NCCCl,9.78
10,COc1cccc(CN(C)C(=O)c2cc(S(=O)(=O)N3CCCCCC3)ccc2OC)c1,3.19
11,CCC(=O)N1CC(=O)Nc2ccc(F)cc2C1c1ccc(F)cc1 (stereo not shown),7.59
12,COc1ccccc1CC(=O)NNC(=O)c1ccco1,15.7
13,COc1ccc(/C=N/Nc2cc(C)nc(-n3nc(C)cc3C)n2)cc1,5.85
14,O=[N+]([O-])c1ccc(O)c(Nc2c([N+](=O)[O-])ccc3nonc23)c1,17.3
15,CCOC(=O)c1c(NC(=O)C[n+]2ccccc2)sc2c1CCCC2.[Cl-],14.3
16,Cc1ccc2cc3c(nc2c1)N(Cc1ccco1)CC3,6.42
17,CCN(CC)CCOC(=O)c1cc(Cl)c(N)cc1OC.Cl,4.81
18,CCC(CC)NC(=O)Cc1ccccc1OC,1.85
19,Cn1c(=O)c2c(nc(N3CCCC3)n2CC(O)CO)n(C)c1=O (stereo not shown),2.91
20,O=C1C2C3C=CC(C4CC34)C2C(=O)N1/N=C/c1cccs1 (stereo not shown),17.8
21,O=[N+]([O-])c1ccc(NC(=S)NCC(c2cccnc2)N2CCOCC2)cc1 (stereo not shown),-5.08
22,COc1ccc(C(CC(=O)c2ccc(C)cc2)Nc2ccc([N+](=O)[O-])cc2)cc1 (stereo not shown),5.99

row,SMILES,"hERG current change (%, negative = inhibition) at 1uM [%]"
1,Cc1n[nH]c(=S)n1/N=C/c1ccc(-c2ccccc2[N+](=O)[O-])o1,2.78
2,CC(C)CNS(=O)(=O)c1ccc(CCC(=O)N2CCOCC2)cc1,5.66
3,CN1CCN(S(=O)(=O)c2ccc(NC(=O)C(C)(C)C)cc2)CC1,8.41
4,CCN(CC(=O)Nc1ccc2c(c1)OCCO2)C(=O)/C=C/c1ccc(OC)c(OC)c1,5.66
5,CCOC(=O)CSc1nnc(CCc2nc3ccccc3[nH]2)n1C,5.81
6,COC(=O)CN(c1nc(C)cc(OC)n1)S(=O)(=O)c1ccc(C)cc1,12.4
7,c1ccc(-c2nn3c(Cn4nnc5ccccc54)nnc3s2)cc1,4.35
8,CC(C)NC(=O)c1ccc2c(c1)N(CC(=O)N1CCCCC1)C(=O)C(C)(C)O2,10.4
9,COc1cc(C(N)=O)ccc1OCc1ccccc1,2.91
10,c1ccc(-n2ncc3c(N4CCCCC4)ncnc32)cc1,4.85
11,COc1cccc(COc2nc3c(c(=O)n(C)c(=O)n3C)n2C)c1,14.6
12,COC(=O)c1ccc(COc2ccc(/C=N/Nc3nc(C)cc(=O)[nH]3)cc2)cc1,15.5
13,N#Cc1cc2c(=O)n3ccccc3nc2n(-c2ccccc2Cl)c1=O,11
14,O=C1NN(c2ccccc2)C(=O)C2C3C=CC(C4CC34)C12 (stereo not shown),10.8
15,Cc1ccccc1OCC(=O)N/N=C/c1cc2ccccc2nc1Cl,-3.3
16,COc1ccc(C(CNC(=O)Cc2c(F)cccc2Cl)N2CCCCC2)cc1 (stereo not shown),6.13
17,CC(=O)Oc1ccc(-c2nc3cc(Cl)ccc3c(=O)o2)cc1,11.8
18,CCCCCNCc1cccc(Br)c1.Cl,3.77
19,CC1=C(C(=O)OCc2ccc3c(c2)OCO3)C(c2ccccc2OCc2ccccc2)NC(=O)N1 (stereo not shown),18
20,O=C(Nc1c[nH]c(=O)[nH]c1=O)c1ccc([N+](=O)[O-])cc1,12.7
21,COc1cccc(C(=O)NC2CCCc3c2cnn3-c2ccc(C)c(C)c2)c1OC (stereo not shown),11.5
22,O=C(Nc1ccc(N2CCOCC2)cc1)C1CC(O)CN1S(=O)(=O)c1ccc(Cl)cc1 (stereo not shown),13.9

row,SMILES,"hERG current change (%, negative = inhibition) at 1uM [%]"
1,COc1ccc(OC)c(S(=O)(=O)CC(=O)c2cc3ccc(OC)cc3oc2=O)c1,13.6
2,COc1ccc(NC(=O)c2ccc(-n3c(C)ccc3C)cc2)c(OC)c1,10.4
3,CCNC(=O)CSc1nc(-c2ccc(F)cc2)cs1,20.8
4,COc1ccc2cc3cc(C(=O)Nc4ccc5c(c4)OCCO5)oc3nc2c1,0.374
5,CC1=NN(c2ccccc2)C(=O)C1c1ccccc1 (stereo not shown),10.4
6,Cl.O=S(=O)(NCCN1CCOCC1)c1ccc(Cl)c(Cl)c1,12.9
7,CCOC(=O)C1CCN(C(=O)c2cc(S(=O)(=O)N3CCOCC3)ccc2C)CC1,6.46
8,O=S(=O)(c1cccs1)N1CN(Cc2ccc(F)cc2)c2nc3ccccc3nc21,3.68
9,Cc1nc(/N=C(\N)NC(=O)N2c3ccccc3Sc3ccccc32)nc2ccccc12,11.9
10,COc1cccc(C(=O)NC2CC(C)(C)Cc3c2cnn3-c2cccc(F)c2)c1OC (stereo not shown),-2.37
11,COc1ccc(N2C(=O)C3C(C2=O)C3(c2ccccc2)c2ccccc2)cc1 (stereo not shown),12
12,Cc1ccc(C(=O)Nc2nc(-c3ccccn3)cs2)o1,-1.17
13,O=C(COC(=O)CNC(=O)c1ccccc1F)NCCC1=CCCCC1,14.7
14,COc1ccc(C2SCC(C(=O)NCc3ccc(F)cc3)N2C(C)=O)cc1 (stereo not shown),-2.31
15,Cc1ccn(-c2ccc([N+](=O)[O-])cc2)n1,12.7
16,O=C(Nc1ccc2c(c1)CCCN2C(=O)c1cccs1)c1cccc(F)c1,11.8
17,COc1cc([N+](=O)[O-])ccc1NC(=O)NCc1cccnc1,-1.89
18,CC1(C)CC(=O)/C(=C(\O)CCCN2C(=O)c3ccccc3C2=O)C(=NCC(=O)O)C1,8.81
19,O=C(Cn1cc(S(=O)(=O)Cc2cccc(F)c2)c2ccccc21)N1CCOCC1,7.18
20,O=C(COc1ccc2c(c1)OCO2)NC12CC3CC(CC(C3)C1)C2,4.39
21,CCOC(=O)Cn1cc(/C=C/[N+](=O)[O-])c2ccccc21,11.9
22,O=C(c1cc(-c2ccc(O)cc2)on1)N1CCOCC1,3.69

row,SMILES,"hERG current change (%, negative = inhibition) at 1uM [%]"
1,CCCCNC(=O)CC1N=C2c3ccccc3N=C(SCC(=O)Nc3ccc(OC)cc3)N2C1=O (stereo not shown),6.61
2,O=C(C1Cc2ccccc2O1)N1CCCCC1 (stereo not shown),2.49
3,CC(Sc1nnc(C(C)Oc2ccccc2F)o1)C(=O)NCc1ccc2c(c1)OCO2 (stereo not shown),2.55
4,Cc1cc(=O)[nH]c(SCC(=O)Nc2nc3c(s2)CCCC3)n1,7.85
5,O=C(O)CN1C(=O)/C(=C\c2cccc(OCc3ccccc3)c2)SC1=S,7.44
6,O=C(NNC(=S)NCC1CCCO1)c1cccc(S(=O)(=O)N2CCOCC2)c1 (stereo not shown),-2.64
7,Cc1ccc(S(=O)(=O)NC(=O)Nc2ccc(C)cc2C)cc1,10
8,Cc1ccccc1N1C(=O)N(c2cccc(C(F)(F)F)c2)C2CS(=O)(=O)CC21 (stereo not shown),11.3
9,O=S(=O)(/C=C/c1ccccc1)N1CCN(c2cccc(Cl)c2)CC1,5.1
10,Cl.O=C(CCN1CCc2ccccc2CC1)c1ccc2c(c1)OCCO2,-32.3
11,O=C(CN(C(=O)c1csnn1)c1ccccc1F)NC1CCCCC1,-2.12
12,O/N=C/CCn1c(=S)sc2ccccc21,7.42
13,COc1ccc(S(=O)(=O)N2CCC(C(N)=O)(N3CCCCC3)CC2)cc1OC,10.3
14,COc1ccc(C2CC(=O)C=C(NCC3CCCO3)C2)cc1 (stereo not shown),5.3
15,COCCCNC(=S)N/N=C/c1ccccc1O,12.7
16,CCOC(=O)c1nc(C)nc(Sc2n[nH]c(-c3cc(C(F)(F)F)cc(C(F)(F)F)c3)n2)c1C,8.67
17,O=C(NCCOC(=O)c1c(F)cccc1Cl)c1c(F)cccc1Cl,13.1
18,CC1(C(=O)N2CC3(CC(c4cccc(NC(=O)CC(c5ccccc5)c5ccccc5)c4)=NO3)C[C@@H]2C(N)=O)CC1 (stereo partly shown),15.2
19,COc1ccc(OC)c(C2=NOC(C(=O)N3CCCc4ccccc43)C2)c1 (stereo not shown),7.77
20,O=C(COc1ccc(Br)cc1)Nc1ccc(CN2CCOCC2)cc1,-7.52
21,Cc1ccc(NC(=O)C(C)N=C2NS(=O)(=O)c3ccccc32)cc1 (stereo not shown),9.15
22,CC1CCCCN1C(=O)CSc1nc(-c2ccccc2)cc(=O)[nH]1 (stereo not shown),7.24
